The campaign covered roughly 45,000 compounds. About 65 (0.1%) were called active. Calls come from the whole dose curve; as a rule, active = well fitted activation curve with a large enough effect; inconclusive = small, poorly fitted or top-dose-only effect; inactive = no such curve, though single readings can be large or run the other way. This is one part of the list.
Each molecule was assayed against Galactocerebrosidase (Homo sapiens) (UniProt P54803) (assay: A Novel Cell-Based Assay to Identify Small Molecules for B -Galactocerebrosidase). Settings: 145M-Twi-hGALC-G270D cells (Twitcher mouse brain line with human GALC G270D), HMU-beta-Gal fluorescence, 48 h; series mostly up to 57.5 µM; activation: at the top concentration.
Summary of the method: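 Brain-derived Twitcher mouse 145M-Twi cells stably expressing human GALC-G270D or wild-type GALC, treated live, then residual GALC activity read by fluorescence of HMU-b-Gal substrate (0.1 mM final) in citrate-phosphate buffer pH 5.2 with sodium taurocholate. Signal increase indicates enhancement.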
Note: 0% is about no effect; nearly all actives have a fitted effect of over 65% in size.

Sequence of UniProt P54803 (P54803 whole entry, looked up): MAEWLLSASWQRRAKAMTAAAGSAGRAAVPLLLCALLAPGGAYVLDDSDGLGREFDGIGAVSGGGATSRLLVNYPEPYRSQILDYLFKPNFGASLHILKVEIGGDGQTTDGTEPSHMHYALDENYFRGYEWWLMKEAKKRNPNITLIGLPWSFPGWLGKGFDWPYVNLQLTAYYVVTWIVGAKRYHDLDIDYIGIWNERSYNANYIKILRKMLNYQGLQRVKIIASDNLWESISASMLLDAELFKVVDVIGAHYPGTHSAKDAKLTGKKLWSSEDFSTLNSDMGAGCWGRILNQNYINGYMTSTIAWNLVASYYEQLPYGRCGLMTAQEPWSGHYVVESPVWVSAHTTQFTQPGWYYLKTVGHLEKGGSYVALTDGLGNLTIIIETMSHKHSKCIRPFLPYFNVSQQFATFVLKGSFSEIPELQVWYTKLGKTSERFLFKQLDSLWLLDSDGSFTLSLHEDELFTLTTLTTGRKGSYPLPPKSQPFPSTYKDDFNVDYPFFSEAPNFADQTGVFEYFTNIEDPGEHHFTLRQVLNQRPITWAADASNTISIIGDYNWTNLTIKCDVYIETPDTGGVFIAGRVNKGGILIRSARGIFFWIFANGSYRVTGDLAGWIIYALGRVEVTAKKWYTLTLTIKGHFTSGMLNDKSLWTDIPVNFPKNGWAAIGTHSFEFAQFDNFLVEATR

activation, inactive:
COc1ccc(-c2cc(C(=O)Nc3c(C(=O)c4ccc(C)cc4)oc4ccccc34)no2)cc1 -3.79%, O=C(Cn1c(=O)n(Cc2nc(-c3ccccc3)no2)c(=O)c2ccccc21)Nc1cccc(C(F)(F)F)c1 -21.2%, COc1ccccc1CNC(=O)C1CCCN(S(=O)(=O)c2ccc3c(c2)oc(=O)n3C)C1 (stereo not drawn) -20.8%, Cc1cccc2sc(N(Cc3cccnc3)C(=O)CCc3ccccc3)nc12 -47.2%, CCOC(=O)c1ccc(N2C(=O)c3[nH]nc(-c4ccccc4)c3C2c2ccc(CC)cc2)cc1 (stereo not drawn) -13.7%, O=C(CSc1nccn1Cc1ccccc1)NCc1ccco1 -16.9%, CCOC(=O)c1cc(-c2ccc(OC)cc2)n(CCC(=O)Nc2ccccc2OC)c1C 2.03%, COc1ccc(Cn2c(CCC(=O)Nc3cc(OC)c(OC)c(OC)c3)nc3cccnc32)cc1 -29.8%, CCOc1ccc(NCc2cccn2-c2nnc(N3CCC(C(=O)NCC(C)c4ccccc4)CC3)s2)cc1 (stereo not drawn) -14.8%, CCOc1ccccc1NC(=O)CN1C(=O)COc2ccc(S(=O)(=O)N3CCOCC3)cc21 -15.4%, O=C(CCCn1c(=O)c2cccn2c2ccccc21)Nc1cc(C(F)(F)F)ccc1Cl -11.9%, Cn1cc(-c2cc3n(n2)CCC(=O)N3CCCC(=O)NCc2ccc(Cl)cc2)c2ccccc21 -25.9%, CCC(CC)C(=O)OCc1cc(=O)n2nc(C3CC3)sc2n1 0.11%, CC1=C(c2ccc(Cl)cc2)S(=O)(=O)NC1=NCCCN1CCN(c2cc(C)ccc2C)CC1 -16.1%, CC1C(=O)Nc2ccc(S(=O)(=O)N3CCCCC3)cc2NC1=O (stereo not drawn) 21.3%, CCN(c1ccccc1)S(=O)(=O)c1ccc(NC(=O)c2nc(SC)ncc2Cl)cc1 -19.3%, CCN(CC)c1ccc(NC(=O)C2CCN(c3nnc(-n4cccc4)s3)CC2)c(C)c1 -22.2%, Cc1cc(C)n(C(C)CC(=O)Nc2cccc(C(F)(F)F)c2)n1 (stereo not drawn) -16.5%, CCc1ccccc1NC(=O)CSc1nc(-c2cccc(Cl)c2)nc2c1Cc1c(CO)cnc(C)c1O2 -6.71%, COc1cc(/C=C(\C#N)C(=O)NCC2CCCO2)ccc1O (stereo not drawn) -15.3%, O=C(Nc1cc(-c2nc3ccccc3o2)ccc1Cl)c1sc2c([N+](=O)[O-])cccc2c1Cl -2.89%, CCOc1ccc(CN2CCc3nc(N4CCN(c5ccccc5OC)CC4)ncc3C2)cc1OC -4.82%, CC(C)(C)OC(=O)N1CCC(c2c(C(=O)NCc3cccc(Cl)c3)cnn2-c2ccc(F)cc2)CC1 -4.18%, COc1ccc(-c2nc(SCC(=O)NC3CCCC3)c(-c3ccc(F)cc3)[nH]2)cc1 -37.6%, COc1ccc(-n2c(-c3ccc(C)cc3)cc3c2CC(C)(C)CC3=O)cc1Cl 5.3%, Cc1ccccc1C(=O)Nc1nnc(S(=O)(=O)N(C)Cc2ccccc2)s1 -14.5%, O=C(NCCCN1CCCCC1)c1sc2ncccc2c1-n1cccc1 -27.2%, CC1CCN(C(=O)Cn2c(=O)n(CC3CCC(C(=O)NC(C)C)CC3)c(=O)c3sccc32)CC1 (stereo not drawn) -14.3%, COc1ccc(S(=O)(=O)NCC(c2ccco2)S(=O)(=O)c2ccc(C)cc2)cc1F (stereo not drawn) -0.53%, CCn1nc(C)c2c(-c3ccccc3)cc(=O)n(C(C)C(=O)NCCC(C)C)c21 (stereo not drawn) -33.1%, CC(C)c1ccc(Cn2c(COc3ccccc3)nc3ccccc32)cc1 -19%, O=C(COc1ccccc1F)Nc1ccc2nc(SCCOc3ccccc3)sc2c1 -6.18%, Cc1ccc(NC(=O)Cn2c(=O)n(Cc3nc(-c4ccccc4)no3)c(=O)c3cc4c(cc32)OCO4)cc1F -13.2%, COc1ccc(NC(=O)CC2C(=O)N(c3cccc(OC)c3)C(=O)N2CCc2cccs2)cc1 (stereo not drawn) -11.1%, CC(=O)Nc1ccc(NC(=O)CCc2nc3cccnc3n2Cc2cccs2)cc1 11.8%, CC1CCN(Cc2c(O)ccc3c(=O)c(Oc4ccccc4Cl)c(C(F)(F)F)oc23)CC1 -11.7%, Cc1ccc(NC(=O)Cn2nc(C(=O)Nc3ccc(C)cc3)ccc2=O)cc1 -9.95%, COc1ccc(CNS(=O)(=O)c2ccc(N3CCCCS3(=O)=O)cc2)cc1 -8.29%, CCc1ccc(OC(C)C(=O)N2CCC(c3nc4ccccc4o3)CC2)cc1 (stereo not drawn) -26%, Cc1ccc(C(=O)Nc2ccc3c(c2)n(C)c(=O)c(=O)n3C)cc1 -15.6%, COc1ccc2c(c1)c1c(c(=O)n(Cc3ccccc3)c(=O)n1Cc1cc(C)ccc1C)n2C -7.31%, COc1ccc(NC(=O)Cc2coc3cc(C)cc(C)c23)c(OC)c1 -15.6%, Cc1nn2c(=O)cc(COC(=O)c3ccccc3NC(=O)c3ccccc3C)nc2s1 -3.22%, COc1cccc(OCc2nc3ccccc3n2CCOc2ccccc2)c1 -8.58%, Cc1ccc(CN2CCCn3nc(C(=O)NCCN(C)C)cc3C2=O)cc1 -16%, COC(=O)c1c(NC(=O)CCCOc2ccc(C)cc2)sc2c1C(C(=O)OC)CC2 (stereo not drawn) -14.9%, CCc1cccc(CC)c1NC(=O)c1cc(S(=O)(=O)N2CCc3ccccc32)cn1C -20.2%, COc1ccc(-c2ccc(NS(=O)(=O)c3ccc(F)c(C(F)(F)F)c3)cc2)nn1 3.5%, Cc1ccc(C)c(OCCSc2nc3ccccc3n2CC(=O)N2CCOCC2)c1 -24.7%, CCOC(=O)c1c(C)[nH]c(C)c1S(=O)(=O)N1CCC(C(=O)NCc2ccccc2)CC1 -9.5%, O=C(Cn1c(=O)nc(-c2ccccc2)c2cc(Cl)ccc21)NCc1ccccc1 0.432%, Cn1nc(-c2ccc(OCC(=O)Nc3ccccc3)cc2)c2ccccc2c1=O -7.22%, CCOC(=O)c1ccc2c(c1)N(Cc1cccc([N+](=O)[O-])c1)C(=O)c1ccccc1S2 1.97%, CC(C)C[C@H](NC(=O)[C@H](CCc1ccccc1)NC(=O)CN1CCOCC1)C(=O)N[C@@H](Cc1ccccc1)C(=O)N[C@@H](CC(C)C)C(=O)[C@@]1(C)CO1 -3.13%, Cc1ccc(S(=O)(=O)N2CCCC(c3nc4c(nnn4Cc4ccc(OC(F)(F)F)cc4)c(=O)[nH]3)C2)cc1 (stereo not drawn) -13.4%, CN(Cc1ccccc1)C(=O)c1cc2c(=O)n(C)c3ccccc3c2s1 -7.48%, CCOC(=O)N1CCc2c(sc3c2c(=O)n(Cc2ccccc2)c(=O)n3Cc2c(F)cccc2Cl)C1 -1.72%, O=C1CC(c2nc3ccccc3n2Cc2c(F)cccc2Cl)CN1c1cccc(C(F)(F)F)c1 (stereo not drawn) -0.552%

Source: PubChem BioAssay AID1159614 (National Center for Advancing Translational Sciences (NCATS), 2016)
